Assay results published in the RNAGym collection of RNA variant scans (doi:10.1093/nar/gkz1192).
Read counts are not given, so values of variants with three or more changes are uncertain.

B1: CPEB3 Ribozyme (parent)
chain: UAACAGGGGGCCACAGCAGAAGCGUUCACGUCGCAGCCCCUGUCAGAUUCUGGUGAAUCUGCGAAUUCUGCUGUAUAUCUC

Variants of: B1
Assay: self-cleavage, relative activity (ratio to wild type); higher = more cleavage; in vitro, sequencing
In short: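 For each CPEB3 ribozyme variant, relative activity is its cleaved/total read fraction divided by the unmutated ribozyme's. Barcoded error-prone PCR libraries were transcribed by T7 RNA polymerase (5 hours, 37°C) and held in DNase I for 15 min before an EDTA stop, with cleavage occurring throughout. Template-switching reverse transcription and Illumina sequencing were used to read the RNAs. A 5-read minimum applied, and results are the mean of three batches.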

| Variant | self-cleavage |
| --- | --- |
| UAACAGGGGGCCACGGCAGAAGCGUACACGUCGCAGCCCCCGUCAGAUUCUGGUGAAUCUGCGAAUUCAGCUGUAUGUCUC [A15G U26A U41C U69A A77G] | 0.13 |
| UAACAGGGGGCCACGGCAGAAGCGUCCACGUCGCAGCCCCUGUCUGACUCUGGUGAAUCUGCGAAUUCUGCCGUAUAUCUC [A15G U26C A45U U48C U72C] | 0.2 |
| UAACAGGGGGCCACGGCAGAAGCGGACACGUCGCAGCCCCUGUCAGACUCUGGUGAAUCUGCGAAUUCUGCUGUAUAUCUC [A15G U25G U26A U48C] | 0.06 |
| UAACAGGGGGCCACGGCAGAAGCGUACACGUUGCAGCCCCUGUCUGAUUCAGGUGAAUCUGCGAAUUCUGCAGUAUAUCCC [A15G U26A C32U A45U U51A U72A U80C] | 0.06 |
| UAACAGGGGGCCACGGCAGAAGCGUACACGUCGCAGCCCCUGUCAGAUUCUGGAGGAUCUGCGAAUUCUGCUGUGUAUCUC [A15G U26A U54A A56G A75G] | 0.26 |
| UAACAGGGGGCCACGGCAGAAGCGUCCACGUCGCAGCACCUGUCAGAUUCUGGUGAAUCUGCGAAUUCUGCUGAAUAUCUC [A15G U26C C38A U74A] | 0.36 |
| UAACAGGGGGCCACGGCAGAAGCGUCCACGUCGCAGCCCCUGUCUGAUUCUGGUGAAUCAGCGAAUCCUGCUGUAUAUCUC [A15G U26C A45U U60A U67C] | 0.06 |
| UAACAGGGGGCCACGGCAGAAGCGUCCACGUCGCAGCCCCUGUCAGAUUCUGGUGAAUCUGCGAAUUCUGCUGUUUAUCUC [A15G U26C A75U] | 0.56 |
| UAACAGGGGGCCACGGCAGAAGCGUCCAUGUCGCAGCCCCUGUCAGAUUCUGGUGAAUCUGGGAAUUCUGCUGUAUAUCUC [A15G U26C C29U C62G] | 0.11 |
| UAACAGGGGGCCACGGCAGAAGCGUACACGUCGCAGCCCCCGUCAGAUUCUGGCGUAACUGCGAGUUCUGCUGUAUAUCUC [A15G U26A U41C U54C A56U U58A A65G] | 0.04 |
| UAACAGGGGGCCACGGCAGAAGCGUACACGUCGCAGCCCCUGUCAGAUUCUGGUGAAUCUGCAAAUUCUGCUGUAUAUCUC [A15G U26A G63A] | 0.38 |
| UAACAGGGGGCCACGGCAGAAGCGUACACGUCGCAGCCCCUGUCAGAUUCUGGUGAGUCUGCGAAUUCUGCUGUAUAUCUC [A15G U26A A57G] | 0.56 |
| UAACAGGGGGCCACGGCAGAAGCGGUCGCGUCGCAGCCCCUGACAGAUUCUGGUGAAUCUGCGAAUUCUGCUGUAUAUCCC [A15G U25G A28G U43A U80C] | 0.14 |
| UAACAGGGGGCCACGGCAGAAGCGUACACGUCGCAGCCCCCGUCAGACUCUGGUGAAUCUGCGAAUUCUGCUGUAUAUCUC [A15G U26A U41C U48C] | 0.29 |
| UAACAGGGGGCCACGGCAGAAGCGUCCACGUAGCAGCCCCUGUCAGAUUCUGGUGAACCUGCGAAUUCUGCUGCAUAUCUC [A15G U26C C32A U58C U74C] | 0.07 |
| UAACAGGGGGCCACGGCAGAAGCGUCCACGUCGCAGCCCCUGUCUGAUUCAGGUGAAUCUGCGAUUUCUGCUGUAUAUCUC [A15G U26C A45U U51A A65U] | 0.17 |
| UAACAGGGGGCCACGGCAGAAGCGUACACGCCGCAGCCCCUGUCAUAUUCUGGUGAAUCUGCGAAUUCUGCUGUAUAUCUC [A15G U26A U31C G46U] | 0.03 |

| Variant | self-cleavage |
| --- | --- |
| UAACAGGGGGCCACGGCAGAAGCGUACACGUCGCAGCCCCUGUCAGAUUCCGGUGAAUCUGCGAAUUCUGCUGUAUAUCUC [A15G U26A U51C] | 0.87 |
| UAACAGGGGGCCACGGCAGAAGCGUCCACGUCGCAGCCCCUGUCAGAUUCUGGUGUAUCUGCGAAUUCUGCUGUAUAUCUC [A15G U26C A56U] | 0.22 |
| UAACAGGGGGCCACGGCAGAAGCGUCCACGUCGCAGCCCCUGUCAGAUUCUGGUGGCUCUGCGAGUUCUGCUGUAUAUCUC [A15G U26C A56G A57C A65G] | 0.09 |
| UAACAGGGGGCCACGGCAGAAGCGUACACGUCGCAGCCCCUGUCAGAUUCAGGUGGAUCUGCGAAUUCUGCUGUAUAUCUC [A15G U26A U51A A56G] | 0.38 |
| UAACAGGGGGCCACGGCAGAAGCGUCCGCGUCGCAGCCCCUGUCAGAUUCUGGUGAAACUGCGAAUUCUGCUGAUCAUCUC [A15G U26C A28G U58A U74A A75U U76C] | 0.07 |
| UAACAGGGGGCCACGGCAGAAGCGUCCUCGUCGCUGCCCCUGUCAGAUUCUGGUGAAUCUGCGAAUUCUGCUGUAAAUCUC [A15G U26C A28U A35U U76A] | 0.31 |
| UAACAGGGGGCCACGGCAGAAGCGUCCACGUCGCAGCCCCUGUCAGAUUCUGGUGAAUCUGCGAGUCCUACUGUAUAUCUC [A15G U26C A65G U67C G70A] | 0.09 |
| UAACAGGGGGCCACGGCAGAAGCGUCCACGUCGCAGCCCCUGUCCGAUUCUGGUGAGUCUGCGAAUCCUGCUGUGUAUCUC [A15G U26C A45C A57G U67C A75G] | 0.07 |
| UAACAGGGGGCCACGGCAGAAGCGUCCUCGUCGCAGCCCCUGUCAGAUUCUGGAGUAUCUGCGGAUUCUGCUGUAUAUCUC [A15G U26C A28U U54A A56U A64G] | 0.17 |
| UAACAGGGGGCCACGGCAGAAGCGCUCACGUCGCAGCCCCUGUCAGAUUCUGGUGAAUCUGCGAAUUCAGCUGUAUAUCUC [A15G U25C U69A] | 0.24 |
| UAACAGGGGGCCACGGCAGAAGCGUCCACGUUGCAGCCCCUGUCAGAUUCUGGUGAAUCUGCGAAUUCUGCAGUAUAGCUC [A15G U26C C32U U72A U78G] | 0.04 |
| UAACAGGGGGCCACGGCAGAAGCGUACGCGUCGCAGCCCCUGUUAGAUUCUGGUGAUUCUGCGAAUACUGCUGUAUAUCUC [A15G U26A A28G C44U A57U U67A] | 0.02 |
| UAACAGGGGGCCACGGCAGAAGCGGUCACGUCGCAGCCCCUGUCAGAUUCUGGUGAAUCCGCGUAUUCUGCUGUAUAUCCC [A15G U25G U60C A64U U80C] | 0.12 |
| UAACAGGGGGCCACGGCAGAAGCGUCCACGUCGCUGCCCCUGCCAGAUUCUGGUGAAUCUGCGAAUUCUGCUGUAUAUCUC [A15G U26C A35U U43C] | 0.25 |
| UAACAGGGGGCCACGGCAGAAGCGUCCGCGUCGCAGCCCCUGUCAGAUUCUGGUGAAUCUGCGAAUUCUGCUGUACAUCUC [A15G U26C A28G U76C] | 0.15 |
| UAACAGGGGGCCACGGCAGAAGCGUCCACGUCGCAGCCCCUGUCAGAUUCUGGUGACUCUGCGAAUUCUGCAGUAUAUCUC [A15G U26C A57C U72A] | 0.13 |
| UAACAGGGGGCCACGGCAGAAGCGUACACGUCGCAGCCCCUGCCAGAUCCUGGUGAAUCUGCGAAUUCUGCCGUAUAUCUC [A15G U26A U43C U49C U72C] | 0.11 |
